# Experimental data from ChEMBL document CHEMBL4888484, “Replenishing the malaria drug discovery pipeline: Screening and hit evaluation of the MMV Hit Generation Library 1 (HGL1) against asexual blood stage Plasmodium falciparum ,using a nano luciferase reporter read-out” (2022).
# Hit rate of the full screen: of about 150,000 compounds, about 540 (0.36%) showed an effect of 50% or more. Some of the results follow.
# Test system: Plasmodium falciparum
# Experiment: Primary screen in NF54 nanoGlo assay, in single point, at 2uM, 72h; a lower Z score goes with more inhibition
# Type: functional, Erythrocyte
# Conditions: timepoint 72 hour
SMILES,% Inhibition,Z score,% Inhibition (2 µM),Z score (2 µM)
CNc1nc(CN2C[C@H]3CC(C)=CC[C@H]3C2)cs1,4%,-0.67,,
Cc1c(C(=O)N2CCC3(CC2)OCCO3)cnn1C,-6%,1.2,,
CCNC(=O)CN1C[C@@H]2CC[C@H]1CN(Cc1c(C)noc1C)C2,-8%,1.62,,
COc1ccc(CN2CCOC[C@@]23CCOC3)nn1,-2%,0.33,,
C[C@@H](Cc1ccc(Cl)cc1)NCCc1nnc2ccccn12,5%,-0.66,,
O=C1CCCN1c1ccc(N[C@H]2CN3CCC2CC3)cc1,0%,-0.04,,
CCc1ccc(CN2C[C@@H]3CCC[C@H](C2)C(=O)N3)nc1,-13%,2.37,,
O=c1ccc2ccccc2n1Cc1cncn1C1CC1,-7%,1.31,,
CC1CCC(c2nnnn2-c2ccc(Cl)cc2)(N2CCOCC2)CC1 (centres undefined),8%,-0.94,,
N#Cc1ccc(NCC2(O)CCC2)cc1Cl,6%,-0.7,,
OC12CC(C3COC1O3)n1nc(C(F)(F)F)nc1N2 (centres undefined),-11%,1.46,,
CC(NCc1cccn(C(F)F)c1=O)C(c1ccccc1)N(C)C (centres undefined),-20%,2.13,,
O=C(c1ccccc1F)c1cc(Cl)ccc1NC(=O)C(c1ccccc1)c1ccccc1,-12%,1.95,,
O=C(Nc1ccc(-c2noc(=O)[nH]2)cc1)[C@@H]1Cc2ccccc2O1,-8%,0.99,,
CCOc1ccc(CN2CCN(C)[C@@]3(CCNC(=O)CC3)C2)cn1,5%,-0.88,,
CC(Cc1ccccc1)NC1CN2CCC1CC2 (centres undefined),,,0%,-1.44
Cc1cccnc1CN1CCCN2CCC[C@H]2C1,-21%,2.03,,
O=C(c1cnc(-c2cc(Cl)cc(Cl)c2)nc1O)N1C[C@@H]2C[C@H]1CN2,3%,-0.4,,
CN1[C@@H]2CC[C@H]1c1c(nc(N)c(C#N)c1-c1ccc(F)cc1Cl)C2,-5%,0.55,,

SMILES,% Inhibition,Z score,% Inhibition (2 µM),Z score (2 µM)
COCC(=O)N[C@@H](C)Cc1cc(C)cc(C)c1,-1%,0.12,,
Cc1cccc(C(=O)N2C[C@H](c3ccccc3)[C@@H]3[C@H]2C2CCN3CC2)c1O,10%,-1.42,,
CC(=O)NCC1=CCCN(CCc2c[nH]c3ccccc23)C1,-12%,1.22,,
CC(C)(C)OC(=O)NC1CC(NC(=O)CN2CCCC2=O)C1(C)C (centres undefined),6%,-0.65,,
COc1cc(=O)n(-c2ccccc2)cc1C(=O)N1CCC2(CC1)OCCO2,11%,-1.37,,
COC[C@H](NCCc1ccc2c(c1)OCO2)C1CC1,-16%,1.61,,
Fc1cccc(C[C@H]2CCOC3(CCNCC3)C2)c1,-8%,0.93,,
O=C(c1cnsn1)N1CCN2C[C@@H](F)C[C@H]2C1,-6%,1.01,,
Cc1c(C(=O)NCc2cc(Cl)cc3c2OCC3)cnn1CC1CCOCC1,-6%,1.19,,
COCc1nc(NCc2c(C)cc(C)nc2OC)cc([C@H]2CCOC2)n1,-6%,1.06,,
COc1cc(C[C@H](C)NCCc2ccncc2C)ccn1,-8%,1.1,,
Nc1ccc(C(=O)N2C[C@H](c3cc(F)cc(F)c3)[C@@H]3[C@H]2C2CCN3CC2)cn1,-12%,2.28,,
Cc1ccc2nc3c(cc2c1)CC1(C(=O)NC(=O)N(C2CCCCC2)C1=O)C1CCCCN31 (centres undefined),-6%,0.75,,
CCCN(CC)c1ccc(C(=O)N2CCC3(CN(C)C3)C2)cn1,-20%,1.8,,
COC1CCCCC1NC1CCCCCC1 (centres undefined),-2%,0.37,,
Fc1cccc(F)c1CN1CC[C@]2(CCOC2)C1,-2%,0.38,,
COC(=O)c1ccc(CO[C@@H](CN2CCN(C(=O)Cc3ccccc3)CC2)c2cccc(OC)c2)cc1,3%,-0.4,,
FC(F)(F)CNCCc1ccccc1,-5%,0.71,,
N#Cc1ccc(NCCN2CCC(CO)CC2)cc1Cl,3%,-0.47,,

SMILES,% Inhibition,Z score,% Inhibition (2 µM),Z score (2 µM)
CN1C[C@@H]2Oc3ccccc3C(=O)N(C)[C@@H]2C1,-9%,1.72,,
Cc1noc(C)c1S(=O)(=O)N1C[C@@H]2C[C@H]1CN2Cc1ccccc1,-6%,0.78,,
Cc1cc(=O)c(C(=O)NCCCN2CCCC2=O)c(CC2CCCC2)n1Cc1cccnc1,15%,-2.06,,
O=C(Cn1ccc(C2CC2)n1)N1CCC2(CC1)OCCO2,-1%,0.16,,
CCN(CC(=O)c1ccc2ccccc2c1)C1CCCCC1,-10%,1.64,,
CC(C)CNC(=O)CN1CC=C(c2noc(C3CCC3)n2)CC1,-9%,1.22,,
CN(C)c1nccc(N2CCN[C@@H]3CS(=O)(=O)C[C@@H]32)n1,-7%,0.88,,
CCc1ccc(CN2CCCN3CCC[C@H]3C2)o1,-5%,0.6,,
CCN(C(=O)Cc1cncnc1)[C@@H](C)Cc1ccc(OC)cc1,-4%,0.55,,
O=C(NCc1nccs1)C1CCC2CCCCN21 (centres undefined),-4%,0.56,,
CC(O)CC(C)CNC1CCC(C)C(C)C1 (centres undefined),-7%,0.85,,
COc1ccc([C@H]2C[C@H]3CC[C@@H](C2)N3Cc2cnc(N(C)C)nc2)cc1,0%,-0.06,,
Cc1cc(C(=O)NCc2ccc(N3CCNCC3)c(F)c2)n(C)n1,-2%,0.29,,
Cc1ccncc1C(=O)N1CCN(CC2CC2)[C@@H]2CS(=O)(=O)C[C@@H]21,4%,-0.73,,
CN1CCC2(O)CCCCC2C1c1cccnc1 (centres undefined),3%,-0.34,,
CN(C)C1(CNc2ccc(C#N)c(Cl)c2)CCOCC1,-5%,0.53,,
Cc1csc(C(=O)NCC#CCN2CCCC2)c1,-6%,1.15,,
C1CCC(c2nc([C@H]3CCOC3)no2)(N2CCOCC2)CC1,-12%,1.21,,
CCCc1cnc(C)nc1N1CC[C@H]2CC[C@@H](C1)N2C,-7%,0.71,,
